# From the supplement of paper PMC8728848
# The list shows a part of the results.
# Columns and labels:
# Assay in all cases: glycan array binding signal (z-score within array); higher = stronger binding
# Details in all cases: glycan notation: IUPAC condensed, linker removed
# GlcA(b1-3)GlcNAc = molecular target: GlcA(b1-3)GlcNAc
# Summary of the method: (§1)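 The Consortium for Functional Glycomics database supplied 3228 glycan arrays, of which those lacking an available protein sequence were dropped. The binding signal, a within-array Z-score, was averaged across arrays of the same protein sequence and across linkers. Negative scores can be read as non-binding.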
# GlcA(b1-6)Gal = molecular target: GlcA(b1-6)Gal
# Summary of the method: as §1
# [1] = molecular target: GlcNAc(a1-3)Gal(b1-4)GlcNAc
# Summary of the method: as §1
# [2] = molecular target: GlcNAc(a1-4)Gal(b1-3)GlcNAc
# Summary of the method: as §1
# [3] = molecular target: GlcNAc(a1-4)Gal(b1-4)GalNAc
# Summary of the method: as §1
# [4] = molecular target: GlcNAc(a1-4)Gal(b1-4)GlcNAc
# Summary of the method: as §1
# [5] = molecular target: GlcNAc(a1-4)Gal(b1-4)GlcNAc(b1-3)Gal(b1-4)Glc
# Summary of the method: as §1
# [6] = molecular target: GlcNAc(a1-4)Gal(b1-4)GlcNAc(b1-3)Gal(b1-4)GlcNAc
# Summary of the method: as §1
# [7] = molecular target: GlcNAc(a1-4)Gal(b1-4)GlcNAc(b1-3)Gal(b1-4)GlcNAc(b1-3)Gal(b1-4)GlcNAc
# Summary of the method: as §1
# [8] = molecular target: GlcNAc(a1-4)Gal(b1-4)GlcNAc(b1-3)Gal(b1-4)[Fuc(a1-3)]GlcNAc(b1-3)Gal(b1-4)[Fuc(a1-3)]GlcNAc
# Summary of the method: as §1
# [9] = molecular target: GlcNAc(a1-6)Gal(b1-4)GlcNAc
# Summary of the method: as §1
# [10] = molecular target: GlcNAc(b1-2)Gal(b1-3)GalNAc
# Summary of the method: as §1
# [11] = molecular target: GlcNAc(b1-2)Man(a1-3)[GlcNAc(b1-2)Man(a1-6)]Man(b1-4)GlcNAc(b1-4)GlcNAc
# Summary of the method: as §1
# [12] = molecular target: GlcNAc(b1-2)Man(a1-3)[GlcNAc(b1-2)Man(a1-6)]Man(b1-4)GlcNAc(b1-4)[Fuc(a1-6)]GlcNAc
# Summary of the method: as §1
# [13] = molecular target: GlcNAc(b1-2)Man(a1-3)[GlcNAc(b1-4)][GlcNAc(b1-2)Man(a1-6)]Man(b1-4)GlcNAc(b1-4)GlcNAc
# Summary of the method: as §1
# [14] = molecular target: GlcNAc(b1-2)[GlcNAc(b1-4)]Man(a1-3)[GlcNAc(b1-2)Man(a1-6)]Man(b1-4)GlcNAc(b1-4)GlcNAc
# Summary of the method: as §1
# [15] = molecular target: GlcNAc(b1-2)[GlcNAc(b1-4)]Man(a1-3)[GlcNAc(b1-4)][GlcNAc(b1-2)Man(a1-6)]Man(b1-4)GlcNAc(b1-4)GlcNAc
# Summary of the method: as §1
# [16] = molecular target: GlcNAc(b1-2)[GlcNAc(b1-4)]Man(a1-3)[GlcNAc(b1-4)][GlcNAc(b1-2)[GlcNAc(b1-6)]Man(a1-6)]Man(b1-4)GlcNAc(b1-4)GlcNAc
# Summary of the method: as §1
# [17] = molecular target: GlcNAc(b1-2)[GlcNAc(b1-4)]Man(a1-3)[GlcNAc(b1-4)][GlcNAc(b1-2)[GlcNAc(b1-6)]Man(a1-6)]Man(b1-4)GlcNAc(b1-4)[Fuc(a1-6)]GlcNAc
# Summary of the method: as §1
# [18] = molecular target: GlcNAc(b1-2)[GlcNAc(b1-6)]Man(a1-6)[GlcNAc(b1-2)Man(a1-3)]Man(b1-4)GlcNAc(b1-4)GlcNAc
# Summary of the method: as §1
# [19] = molecular target: GlcNAc(b1-2)[GlcNAc(b1-6)]Man(a1-6)[GlcNAc(b1-2)Man(a1-3)]Man(b1-4)GlcNAc(b1-4)[Fuc(a1-6)]GlcNAc
# Summary of the method: as §1
# [20] = molecular target: GlcNAc(b1-2)[GlcNAc(b1-6)]Man(a1-6)[GlcNAc(b1-2)Man(a1-3)][GlcNAc(b1-4)]Man(b1-4)GlcNAc(b1-4)GlcNAc
# Summary of the method: as §1
# GlcNAc(b1-3)Gal = molecular target: GlcNAc(b1-3)Gal
# Summary of the method: as §1
# [21] = molecular target: GlcNAc(b1-3)Gal(b1-3)GalNAc
# Summary of the method: as §1
# GlcNAc(b1-3)Gal(b1-4)Glc = molecular target: GlcNAc(b1-3)Gal(b1-4)Glc
# Summary of the method: as §1
# [22] = molecular target: GlcNAc(b1-3)Gal(b1-4)GlcNAc
# Summary of the method: as §1
# [23] = molecular target: GlcNAc(b1-3)Gal(b1-4)GlcNAc(b1-3)Gal(b1-4)GlcNAc
# Summary of the method: as §1
# GlcNAc(b1-3)GalNAc = molecular target: GlcNAc(b1-3)GalNAc
# Summary of the method: as §1
# GlcNAc(b1-3)Man = molecular target: GlcNAc(b1-3)Man
# Summary of the method: as §1
# [24] = molecular target: GlcNAc(b1-3)[GlcNAc(b1-4)][GlcNAc(b1-6)]GlcNAc
# Summary of the method: as §1
# [25] = molecular target: GlcNAc(b1-3)[GlcNAc(b1-6)]Gal(b1-4)GlcNAc
# Summary of the method: as §1
# [26] = molecular target: GlcNAc(b1-3)[GlcNAc(b1-6)]GalNAc
# Summary of the method: as §1
# [27] = molecular target: GlcNAc(b1-4)Gal(b1-4)GlcNAc
# Summary of the method: as §1
# GlcNAc(b1-4)GlcNAc = molecular target: GlcNAc(b1-4)GlcNAc
# Summary of the method: as §1
# [28] = molecular target: GlcNAc(b1-4)GlcNAc(b1-4)GlcNAc
# Summary of the method: as §1
# [29] = molecular target: GlcNAc(b1-4)GlcNAc(b1-4)GlcNAc(b1-4)GlcNAc(b1-4)GlcNAc
# Summary of the method: as §1
# [30] = molecular target: GlcNAc(b1-4)GlcNAc(b1-4)GlcNAc(b1-4)GlcNAc(b1-4)GlcNAc(b1-4)GlcNAc
# Summary of the method: as §1
# [31] = molecular target: GlcNAc(b1-4)[GlcNAc(b1-6)]GalNAc
# Summary of the method: as §1
binder,measurement,setting,value
"OrfX (Escherichia coli), Q9X4B6_ECOLX (protein) MIKIARIAVTLGLLSSLGAQAYAAGLVVNDNDLRNDLAWLSDRGVIHLSLSTWPLSQEEIARALKKAKPSYSSEQVVLARINQRLSALKADFRVTGYTSTDQPGTPQGFGQTQPADNSLGLAFNNSGEWWDVHLQGNVEGGERISNGSRFNANGAYGAVKFWNQWLSFGQVPQWWGPGYEGSLIRGDAMRPMTGFLMQRAEQAAPETWWLRWVGPWQYQISASQMNQYTAVPHAKIIGGRFTFTPFQSLELGASRIMQWGGEGRPQSFSSFWDGFTGHDNTGTDNEPGNQLAGFDFKFKLEPTLGWPVSFYGQMVGEDESGYLPSANMFLGGVEGHHGWGKDTVNWYVEAHDTRTNMSRTNYSYTHHIYKDGYYQQGYPLGDAMGGDGQLIAGKVELITEDNQRWSTRLVYAKVNPENQSINKAFPHADTLKGLQLGWSGDVYQSVRLNTSLWYTNANNSDSDDVGASAGIEIPFSL",glycan array binding signal (z-score),GlcA(b1-3)GlcNAc,-0.214
same,glycan array binding signal (z-score),GlcA(b1-6)Gal,-0.297
same,glycan array binding signal (z-score),[1],0.138
same,glycan array binding signal (z-score),[2],-0.225
same,glycan array binding signal (z-score),[3],1.49
same,glycan array binding signal (z-score),[4],-0.104
same,glycan array binding signal (z-score),[5],-0.135
same,glycan array binding signal (z-score),[6],1.76
same,glycan array binding signal (z-score),[7],-0.324
same,glycan array binding signal (z-score),[8],10.6
same,glycan array binding signal (z-score),[9],-0.119
same,glycan array binding signal (z-score),[10],-0.059
same,glycan array binding signal (z-score),[11],-0.178
same,glycan array binding signal (z-score),[12],0.125
same,glycan array binding signal (z-score),[13],-0.23
same,glycan array binding signal (z-score),[14],-0.239
same,glycan array binding signal (z-score),[15],-0.208
same,glycan array binding signal (z-score),[16],-0.335
same,glycan array binding signal (z-score),[17],-0.389
same,glycan array binding signal (z-score),[18],-0.098
same,glycan array binding signal (z-score),[19],-0.322
same,glycan array binding signal (z-score),[20],-0.197
same,glycan array binding signal (z-score),GlcNAc(b1-3)Gal,-0.257
same,glycan array binding signal (z-score),[21],-0.228
same,glycan array binding signal (z-score),GlcNAc(b1-3)Gal(b1-4)Glc,-0.011
same,glycan array binding signal (z-score),[22],-0.164
same,glycan array binding signal (z-score),[23],0.096
same,glycan array binding signal (z-score),GlcNAc(b1-3)GalNAc,-0.23
same,glycan array binding signal (z-score),GlcNAc(b1-3)Man,-0.141
same,glycan array binding signal (z-score),[24],11.2
same,glycan array binding signal (z-score),[25],-0.291
same,glycan array binding signal (z-score),[26],-0.261
same,glycan array binding signal (z-score),[27],-0.33
same,glycan array binding signal (z-score),GlcNAc(b1-4)GlcNAc,-0.182
same,glycan array binding signal (z-score),[28],-0.182
same,glycan array binding signal (z-score),[29],-0.176
same,glycan array binding signal (z-score),[30],-0.269
same,glycan array binding signal (z-score),[31],-0.118
